Results reported in the supplement of paper PMC10126150.
Values marked as one replicate rest on one cluster of the flow cell; about a third of the high ones do not repeat.

System: ATP
Assay: switch fluorescence ratio, 500 uM ATP over buffer (Cy3 cluster intensity, sum of 5 cycles each) (fold (ratio)); higher = stronger signal-on switching upon ATP binding; sequences stand for … in TCGTCGGCAGCGTCAGATGTGTATAAGAGACAGTTTTTTTTTTTTTTTTTTTTTTTTT…TC
Conditions: aptamer strand: ATP DNA aptamer (quencher-CACCTGGGGGAGTATTGCGGAGGAAGG + anchor), 100 nM annealed; ATP concentration: 500 uM; one replicate
Summary of the method: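 Clusters with intensities outside 100-1000 RFU were excluded. The remaining Cy3-labelled switching-strand clusters on a modified Illumina MiSeq flow-cell had been annealed to 100 nM quencher-labelled ATP aptamer and imaged in selection buffer, then after 15 min with 500 uM ATP at 22 °C, for five cycles separated by NaOH stripping and re-annealing. The fluorescence ratio, averaged per switch-domain sequence, is each cluster's summed target-cycle Cy3 intensity over its summed buffer-cycle Cy3 intensity.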
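Also: ATP exposure 15 min at 22 °C before imaging.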

Row | Sequence | switch fluorescence ratio
1 | GGAATCATA | 1.01
2 | ACAGGGCCTC | 0.946
3 | CAAGTTTCGT | 0.989
4 | TTTGAGTTCT | 0.984
5 | AGCCTGGATA | 1.01
6 | GAGTGAACGC | 0.853
7 | GCTTCATTTA | 0.988
8 | GGGAACGTAA | 1.13
9 | CTCTACTTAC | 1.63
10 | TTTTAGCACC | 1.15
11 | CGAGACCTGC | 1.02
12 | AGACTGGAGA | 0.991
13 | TCGTCACGA | 0.997
14 | AGAACCGCCG | 1.06
15 | CAAGACCATC | 0.991
16 | CACCATTGAC | 1.07
17 | GCTCTTATTG | 1.01
18 | CATTTTGTTC | 0.973
19 | CGTCTGTTGG | 0.98
20 | ATGCCCAACC | 1.03
21 | GCCAATCTCG | 1.08
22 | GGTCTTGCG | 0.933
23 | AGGGTACGAG | 1.02
24 | ATGGTGTGTA | 0.964
25 | ACACGTAGAT | 1.1
26 | GATCTTCCAA | 1.01

Row | Sequence | switch fluorescence ratio
27 | TTTGGAGTG | 0.957
28 | TCTAGACAGC | 1
29 | GATTCTGTCA | 0.991
30 | GGAATCTTTG | 1.05
31 | AGATCGTTTC | 1
32 | TCAGGGAAGT | 0.978
33 | CTTCTATCTG | 1.02
34 | ACAGCCCACG | 1.28
35 | CCTCTCGGGT | 1.2
36 | GGGTAATACG | 1.1
37 | TACGGTCG | 1.01
38 | CAAAAGAGGA | 1
39 | TTAGTTGCT | 0.966
40 | AGCTATGAAG | 1.01
41 | CGGGGAATCG | 1.01
42 | CATGGAGCTG | 0.994
43 | ATTCCGAATG | 1.09
44 | TCATCATCTA | 1.07
45 | TTTTAAGCGA | 1.1
46 | TATCGGAAGT | 0.959
47 | TTCGACCTAC | 1.13
48 | CTCTAATTGG | 0.971
49 | GGGGAACCGG | 1.04
50 | AGATCACACT | 1.03
51 | CGTTTTTCCT | 1.03
52 | CGTTTGGTTC | 1.02

Row | Sequence | switch fluorescence ratio
53 | GGCCGACTTA | 1.02
54 | TCGGCCAGAA | 0.979
55 | CCGACTTTCC | 2.54
56 | TGGTTG | 0.979
57 | GCAGGTACAG | 1.02
58 | AATTCGCTCT | 1.05
59 | ACTTTGTC | 0.999
60 | TTGAACGACT | 1.03
61 | CCTTTCACGG | 1.05
62 | GGCGAATTTA | 1.04
63 | TCCGGCAATT | 1.19
64 | TATGCTATCG | 1.08
65 | TAGGAATGTA | 0.954
66 | GCCAAGGGCG | 1.04
67 | CCATACGCAG | 2.22
68 | GTGGTAGCGC | 1.07
69 | GCGGCTTTTG | 0.957
70 | GATGCTTAGC | 1.01
71 | TTGTTATGAA | 0.999
72 | GCTAGATAC | 2.28
73 | CTAGTGGCGG | 1.02
74 | AGGCGACCAT | 1.01
75 | GTCGGAACGG | 1.05
76 | GCGGTGACAT | 0.995
77 | TTTGGTCCGT | 1.01
78 | GAGTAAAAAC | 0.994

Row | Sequence | switch fluorescence ratio
79 | CATTAGATGG | 1.04
80 | ACGCACCAGG | 2.15
81 | GAGCCCTGAC | 1.03
82 | GTATGTTAGC | 0.986
83 | TATAAACTCC | 1.13
84 | GTATGAAGTC | 0.997
85 | TATGTGGTGG | 1.03
86 | TCGGGGTTCC | 0.982
87 | ATTTGAATGT | 1.03
88 | TGAGAAAGAC | 1.1
89 | GCATTGTAAA | 0.935
90 | ATAGATAG | 1.01
91 | GGCTACTGAA | 1.06
92 | CGGTCCCATC | 1.07
93 | ACTGTGGGG | 1.01
94 | GCGCGCGTGG | 1.03
95 | GCTTTCAGGT | 1
96 | CTATAAGTTT | 0.995
97 | ATTGAAAGAT | 1.01
98 | GATGCTTCAG | 0.943
99 | GCGAACTATT | 1.04
100 | AAATCTTGCG | 1.06
101 | GACTTGCTAC | 2.58
102 | CACATTCCA | 1.07
103 | GGGTCTACCC | 0.998
104 | AGTTCACCAT | 1.03

Row | Sequence | switch fluorescence ratio
105 | TACAATGCCA | 0.975
106 | CGGTCCGTGA | 1.1
107 | GACAGCCGCA | 1.18
108 | AGATTGTATT | 0.993
109 | GAGAGTAGGC | 0.911
110 | ACTTCAGTGC | 1.01
111 | TCCCCTATAC | 2.39
112 | TGGGTAGACT | 1.01
113 | TACTGCGGCG | 1.02
114 | ATTAGGCCTC | 0.988
115 | ATTCCAACTC | 1.07
116 | TCACTAAATG | 1.06
117 | ACGCAGACGC | 2.28
118 | GGCTTAAAAT | 0.988
119 | CGGAGGCTTT | 1.01
120 | GCGCGGGTTC | 1
121 | GCGGCAAATC | 1.04
122 | TTTTGCGACA | 0.993
123 | GTTCTTGGCA | 0.995
124 | CGGGCAGCGC | 1.04
125 | GCGTTACGCT | 1.02
126 | CCGGGTAAAT | 1.07
127 | AAAGACTCCG | 0.98
128 | TTCTGGTATT | 0.978
129 | ATCCTA | 1.02
130 | GAACTCGTGC | 0.975

Row | Sequence | switch fluorescence ratio
131 | ACACTGGTCA | 0.986
132 | GTAGGGTTTG | 0.988
133 | TTTTGTCGTA | 0.917
134 | ATAGCCAAAC | 1.25
135 | CCATCCGCGT | 5.04
136 | AGTGCCCTCA | 1
137 | TGATGCTTG | 1.01
138 | TCCAAGGTTG | 1.01
139 | ATCCCTGATG | 1.02
140 | AGTTTCTTAA | 0.956
141 | GTAACAAGCC | 1.04
142 | TGCCGCAGTG | 1.23
143 | GCTGCACGTC | 1.05
144 | GGTCCTATAT | 0.975
145 | ACATTGGGGG | 1.03
146 | AGTTCAAGAA | 0.992
147 | CAGTTGAAGT | 0.977
148 | CCGCGACAAA | 1.91
149 | AAACTCGGAA | 1.06
150 | GTGGCACCTC | 0.99
151 | CCGGAGGATC | 1.54
152 | ATATGGAGGT | 0.987
153 | GCATACTAAG | 1.07
154 | TACCACCATG | 1.14
155 | GTGGAGTGGT | 1.02
156 | TGCAAGGGCT | 1.02

Row | Sequence | switch fluorescence ratio
157 | TCCTGTTTCT | 1.01
158 | CAAGATTTTG | 0.977
159 | ACCGTTAACT | 1.11
160 | AATACCAGCT | 1.02
161 | GGCGGTAAGG | 1
162 | CAGGTGAACG | 1.16
163 | GGAAAATGCT | 0.995
164 | GATCGATAGT | 1.01
165 | CTTACGTGGT | 1.05
166 | AGCACCGTG | 1.02
167 | TGGCCCGGGT | 1.07
168 | AGACTGAGTG | 1.02
169 | TGGTAGGAAT | 1.06
170 | GCCGATTAGC | 1.04
171 | CCCTACGTTC | 1.54
172 | TAGCTTTGTG | 1.02
173 | ATTTGGGAC | 1.01
174 | GGTACGTAGT | 1
175 | AAGTCCTGAC | 1.06
176 | GGCAGCAGCA | 1.07
177 | CAATTCAGAA | 0.974
178 | CCGTTAACGC | 1.23
179 | TACTAGGTGC | 1.53
180 | TTCTAGCGCT | 0.98
181 | GGCCATCCGA | 1.03
182 | GCTCGCAATT | 2.57

Row | Sequence | switch fluorescence ratio
183 | TTAAGCATGG | 1.06
184 | TGGGGTGTTA | 0.989
185 | CGCAACTCTG | 1.69
186 | CACAAGATTG | 1.01
187 | ACGACTCGGC | 1.34
188 | TCCGGCCTTT | 1.05
189 | CTTCAATTAC | 1.69
190 | TTCAAAAGAG | 1.01
191 | CGCATAATAT | 2.05
192 | GACATCACGC | 1.37
193 | CACGATGACA | 1.05
194 | CAGTGTACAT | 1.08
195 | AACTCGCAGA | 1.05
196 | CCATTGACGC | 1.2
197 | GGGGACAG | 0.994
198 | CATTCAAAGC | 1.03
199 | GGAAGGTGAT | 1.12
200 | CAGAGGGCGT | 0.982
201 | AAGATAAGAC | 1.01
